Experimental data taken from publication PMC5913247.
Changes are numbered by the printed parent chain. Results are given in words; binding and its absence hold for the method and conditions named. In cells and extracts the contact can be indirect. Some entries that bind do so weakly or less than the wild type. Sequences can lack the tags named with a protein.

Amino acid sequences for entries named in this document (tags omitted). A change or cut given only in a name is not applied to a line headed by its entry. Chains listed by the source or under a name are the forms on record and can include a tag or linker. Residues count along the entry.
wild-type KIT (stem cell factor receptor) (P10721, residues 26-976): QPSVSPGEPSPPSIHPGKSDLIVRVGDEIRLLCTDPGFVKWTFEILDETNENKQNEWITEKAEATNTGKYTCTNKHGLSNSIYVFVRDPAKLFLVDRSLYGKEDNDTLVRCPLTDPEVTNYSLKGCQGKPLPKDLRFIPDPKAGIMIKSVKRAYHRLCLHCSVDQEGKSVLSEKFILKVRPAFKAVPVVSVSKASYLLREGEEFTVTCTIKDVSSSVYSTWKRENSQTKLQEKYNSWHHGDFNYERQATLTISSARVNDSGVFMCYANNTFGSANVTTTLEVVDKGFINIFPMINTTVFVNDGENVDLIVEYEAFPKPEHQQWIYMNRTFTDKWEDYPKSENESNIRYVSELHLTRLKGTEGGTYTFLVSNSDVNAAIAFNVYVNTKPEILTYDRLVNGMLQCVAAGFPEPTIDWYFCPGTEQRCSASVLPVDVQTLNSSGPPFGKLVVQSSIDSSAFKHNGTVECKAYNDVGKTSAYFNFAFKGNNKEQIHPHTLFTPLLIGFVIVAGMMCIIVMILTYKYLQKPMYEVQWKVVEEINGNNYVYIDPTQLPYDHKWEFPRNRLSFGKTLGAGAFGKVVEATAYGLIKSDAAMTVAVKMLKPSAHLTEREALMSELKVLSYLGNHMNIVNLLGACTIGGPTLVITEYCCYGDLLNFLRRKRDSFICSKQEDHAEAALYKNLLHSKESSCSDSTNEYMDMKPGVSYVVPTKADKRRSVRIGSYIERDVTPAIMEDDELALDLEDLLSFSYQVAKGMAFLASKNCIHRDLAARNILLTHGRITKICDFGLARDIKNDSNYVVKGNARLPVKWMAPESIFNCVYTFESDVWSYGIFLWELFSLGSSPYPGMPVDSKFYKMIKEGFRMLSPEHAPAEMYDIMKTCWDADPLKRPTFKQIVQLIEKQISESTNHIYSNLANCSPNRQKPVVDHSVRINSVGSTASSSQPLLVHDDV
KIT-D816V (oncogenic mutant of KIT) (P10721, form named): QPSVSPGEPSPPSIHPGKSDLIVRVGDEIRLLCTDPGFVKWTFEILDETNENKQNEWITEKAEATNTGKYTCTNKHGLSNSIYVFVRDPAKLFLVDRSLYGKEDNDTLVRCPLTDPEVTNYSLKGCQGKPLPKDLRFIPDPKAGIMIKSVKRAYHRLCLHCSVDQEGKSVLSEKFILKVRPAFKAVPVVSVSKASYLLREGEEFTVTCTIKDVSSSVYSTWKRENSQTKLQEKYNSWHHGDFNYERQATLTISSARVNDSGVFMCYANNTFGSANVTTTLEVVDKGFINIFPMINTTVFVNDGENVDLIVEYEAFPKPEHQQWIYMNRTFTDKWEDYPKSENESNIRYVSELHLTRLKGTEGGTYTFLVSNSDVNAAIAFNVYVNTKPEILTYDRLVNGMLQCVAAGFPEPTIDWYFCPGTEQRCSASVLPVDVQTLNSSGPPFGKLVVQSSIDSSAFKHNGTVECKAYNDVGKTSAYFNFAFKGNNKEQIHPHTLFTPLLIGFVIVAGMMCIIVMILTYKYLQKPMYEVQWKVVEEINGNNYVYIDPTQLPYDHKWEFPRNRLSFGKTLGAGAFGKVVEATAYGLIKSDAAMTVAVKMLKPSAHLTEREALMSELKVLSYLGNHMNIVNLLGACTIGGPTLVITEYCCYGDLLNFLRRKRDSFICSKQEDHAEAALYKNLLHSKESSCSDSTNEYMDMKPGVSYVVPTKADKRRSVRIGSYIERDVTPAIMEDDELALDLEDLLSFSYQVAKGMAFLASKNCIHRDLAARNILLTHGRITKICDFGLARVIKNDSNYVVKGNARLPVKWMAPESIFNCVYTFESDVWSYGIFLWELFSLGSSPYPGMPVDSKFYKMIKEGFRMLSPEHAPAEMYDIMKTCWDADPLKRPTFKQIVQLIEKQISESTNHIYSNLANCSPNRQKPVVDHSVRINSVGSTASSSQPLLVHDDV

Assays:
[1] = molecular target: T1, SRC-like adaptor protein 2 (SLAP2), wild type, Myc-FLAG tagged (human) (UniProt Q9H6Q3); assay: co-IP; COS-1 cells co-transfected with KIT (wild type or D816V) and SLAP2-FLAG (wild type or R121E); 24 h later incubated with 100 ng/ml SCF for 5 min (KIT-D816V with or without SCF); lysed in 1% Triton X-100 buffer; immunoprecipitated with anti-FLAG, blotted for KIT
T1 sequence: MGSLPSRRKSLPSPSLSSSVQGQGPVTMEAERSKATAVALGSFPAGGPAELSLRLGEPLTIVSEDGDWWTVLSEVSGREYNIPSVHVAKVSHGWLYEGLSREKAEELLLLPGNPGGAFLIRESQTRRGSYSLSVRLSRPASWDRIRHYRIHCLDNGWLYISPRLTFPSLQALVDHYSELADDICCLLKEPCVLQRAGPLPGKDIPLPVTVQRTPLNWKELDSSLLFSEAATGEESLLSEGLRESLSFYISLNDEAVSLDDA

[2] = molecular target: T2, SLAP2-R121E-Myc-FLAG (SLAP2 SH2 domain mutant) (human) (UniProt Q9H6Q3); assay: as above
T2 sequence: T1 sequence with R121E

[3] = molecular target: T1, SRC-like adaptor protein 2 (SLAP2), wild type, Myc-FLAG tagged (human); assay: co-IP; as a1, but cells not stimulated with SCF: COS-1 co-transfected with wild-type KIT and SLAP2-FLAG, anti-FLAG immunoprecipitation, blotted for KIT

| binding [1] | binding [2] | Substance | binding [3] |
| --- | --- | --- | --- |
| binds | no binding | KIT-D816V (oncogenic mutant of KIT) (from UniProt P10721 26-976) (receptor) |  |
| binds | no binding | wild-type KIT (stem cell factor receptor) (from UniProt P10721 26-976) | no binding (condition: cells not stimulated with SCF) |
